Reference: PMC4336329 (PLoS ONE, 2015)
In all, about 310,000 compounds went through this assay and about 14,000 (4.5%) showed an effect of 50% or more. Effects have a minus sign here. The list shows a part of the results.

Target: human ether-à-go-go-related gene (hERG) potassium channel (human, UniProt Q12809)
Experiment: primary screen, population patch clamp on CHO cells stably expressing hERG
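Further: peak tail current of the secondary pulse compared with the same well before compound.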

Sequence of human ether-à-go-go-related gene (hERG) potassium channel (Q12809 whole entry, looked up): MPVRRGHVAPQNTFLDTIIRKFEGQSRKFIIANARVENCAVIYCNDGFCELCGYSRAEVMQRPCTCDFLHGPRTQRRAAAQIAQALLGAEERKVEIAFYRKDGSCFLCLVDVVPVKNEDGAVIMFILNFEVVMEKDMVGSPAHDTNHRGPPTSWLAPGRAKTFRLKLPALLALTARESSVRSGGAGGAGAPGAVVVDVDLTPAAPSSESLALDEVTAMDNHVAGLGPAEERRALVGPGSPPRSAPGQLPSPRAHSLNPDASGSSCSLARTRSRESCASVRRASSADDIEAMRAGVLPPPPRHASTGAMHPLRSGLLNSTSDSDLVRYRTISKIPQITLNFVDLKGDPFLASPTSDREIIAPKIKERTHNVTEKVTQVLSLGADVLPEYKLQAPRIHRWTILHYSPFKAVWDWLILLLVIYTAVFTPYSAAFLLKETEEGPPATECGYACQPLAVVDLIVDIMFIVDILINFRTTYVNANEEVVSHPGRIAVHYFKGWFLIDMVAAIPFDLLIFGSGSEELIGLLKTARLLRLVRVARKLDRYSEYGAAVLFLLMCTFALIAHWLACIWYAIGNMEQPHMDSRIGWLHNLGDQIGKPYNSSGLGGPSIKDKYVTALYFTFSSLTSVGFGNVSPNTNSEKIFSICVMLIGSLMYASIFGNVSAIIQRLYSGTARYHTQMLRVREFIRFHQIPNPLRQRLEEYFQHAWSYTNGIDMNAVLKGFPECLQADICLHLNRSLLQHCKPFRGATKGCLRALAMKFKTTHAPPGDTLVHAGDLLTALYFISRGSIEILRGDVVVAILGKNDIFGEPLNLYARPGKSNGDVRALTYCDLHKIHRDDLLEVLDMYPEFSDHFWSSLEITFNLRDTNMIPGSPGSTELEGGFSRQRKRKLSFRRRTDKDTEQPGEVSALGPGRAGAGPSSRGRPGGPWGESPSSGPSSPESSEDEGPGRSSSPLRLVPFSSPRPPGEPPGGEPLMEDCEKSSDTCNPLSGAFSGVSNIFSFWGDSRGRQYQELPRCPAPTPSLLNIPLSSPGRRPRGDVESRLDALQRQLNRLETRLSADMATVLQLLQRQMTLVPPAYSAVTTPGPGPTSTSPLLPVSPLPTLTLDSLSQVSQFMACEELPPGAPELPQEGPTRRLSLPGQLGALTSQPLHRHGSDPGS

Row | SMILES | hERG current change (%, negative = inhibition) at 10uM
1 | CCC(=NCCc1c(C)[nH]c2ccc(OC(F)(F)F)cc12)C1=C(O)CC(c2ccccc2)CC1=O (centres unmarked) | 4.75%
2 | CCOC(=O)CCCc1ccc(/C(C)=N/NC(N)=S)cc1 | -7.3%
3 | C=CCNc1c2c(nc3ncnn13)CC(C)CC2 (centres unmarked) | -14.8%
4 | CC1CC(C)CN(C(=O)COC(=O)c2ccc3ccccc3n2)C1 (centres unmarked) | 3.79%
5 | COc1ccc(CCN(C)C(=O)c2cnc(C)cn2)cc1OC | 19.6%
6 | Cc1cccc(C(c2c(C)nn(-c3ccccc3)c2N)c2c(C)nn(-c3ccccc3)c2N)c1 | -34.9%
7 | Cc1cc(NC(=O)CSc2ccc(-c3ccc(Br)cc3)nn2)no1 | 11.1%
8 | S=C(NCc1ccccc1)NN1CCOCC1 | 15.5%
9 | Cc1cccc(NC(=O)CSc2nnc(-c3ccncc3)n2C)c1 | -33.4%
10 | O=C(CSCc1ccc(F)cc1)NCc1ccc(F)cc1 | -24.7%
11 | COc1cc(/C=C2\C(=N)N3N=CSC3=NC2=O)ccc1OS(=O)(=O)c1ccccc1 | 4.2%
12 | COC(=O)CCC(=O)OC1(C)C(=O)C2=CN(CCN3CCOCC3)C(c3ccc(OC)cc3)=CC2=C(Br)C1=O (centres unmarked) | -24.3%
13 | O=C(CN(C(=O)CSc1nc2ccccc2o1)c1ccccc1F)NC1CCCCC1 | 1.79%
14 | COc1cc(C(=O)N(C)CCOc2ccccc2)ccc1OCC(=O)Nc1cccc(C(F)(F)F)c1 | -14.2%
15 | Cc1ccc(CNC(=O)C2CC(=O)OC23CCCC3)c(C)c1 (centres unmarked) | -0.109%
16 | O=c1c2ccccc2c(/C=N/c2nnc(Cc3ccccc3)s2)c(O)n1-c1ccc(Cl)cn1 | 10.1%
17 | COc1ccc(N2CCN(c3nc(NCCc4ccc(OC)c(OC)c4)nc(OC)n3)CC2)cc1 | -78.3%
18 | Cc1cc2nc(SCC(=O)O)nc(C)c2cc1C | 9.92%
19 | CS(=O)(=O)NNP(=O)(NNS(C)(=O)=O)NC(=O)c1ccc(Br)cc1 | 10.9%
20 | O=C(/C=C/Nc1ccc(F)cc1)c1ccc(Oc2ncccn2)cc1 | 17.9%
21 | CC1CCC(C(C)C)C(OC(=O)Cn2c(-c3ccccc3)[n+](C)c3ccccc32)C1.[Cl-] (centres unmarked) | -77.3%
22 | O=C(N/N=C\c1cn[nH]c1-c1ccccc1)c1cccs1 | 2.32%

Row | SMILES | hERG current change (%, negative = inhibition) at 10uM
23 | O=C(COc1ccc(/C=C\[N+](=O)[O-])cc1)N1CCOCC1 | -17.7%
24 | O=c1cc(O)nc(SC23CC4CC(CC(C4)C2)C3)[nH]1 | -0.617%
25 | Cc1ccc(S(=O)(=O)c2c(C)cc(C)[nH]c2=O)c(C)c1 | 6.28%
26 | Cc1cccc(NC(=S)N2CCN(c3ccccc3)CC2)c1 | 9.39%
27 | O=C(c1cccc(S(=O)(=O)Nc2ccc(F)cc2)c1)N1CCOCC1 | 14.4%
28 | Nc1c(C(=O)Nc2cccc(F)c2)nnn1-c1ccc2c(c1)OCCO2 | 8.13%
29 | CN1CCOCCOCCN(C)C(=O)N2CCOCCOCCN(CCOCC2)C1=O | 8.67%
30 | CCC(C)(C(=O)Nc1c(C)cccc1C)N(C)C(=O)c1ccc2ccccc2n1 (centres unmarked) | 8.52%
31 | S=C(NCC1CCCO1)N1CCN(c2nc(-c3ccccc3)cs2)CC1 (centres unmarked) | -5.89%
32 | CN(CC(=O)NCCCN1CCOCC1)S(=O)(=O)c1ccc(F)cc1 | 15.4%
33 | O=C(O)CC/C(=N/Nc1ncc(C(F)(F)F)cc1Cl)C(=O)O | 20.6%
34 | COc1ccc(CC(=O)NNc2ncnc3c2cnn3-c2ccccc2)cc1 | 7.83%
35 | CCOC(=O)c1ccc(NC(=O)CSC2=NN3CCCC(=O)N=C3S2)cc1 | 1.3%
36 | O=C1N/C(=N\N=C\c2ccccn2)SC1Cc1cccc(SC(F)F)c1 (centres unmarked) | 1.89%
37 | Cc1ccc(Cn2ncn(-c3ccccc3)c2=O)cc1 | 11.1%
38 | CCOC(=O)NNC1CC(=O)N(c2ccc(OC)cc2)C1=O (centres unmarked) | 16.6%
39 | CCN(CC)C(=O)CSc1nnc2cc(C)c3ccccc3n12 | 8.77%
40 | C/C(Cl)=C\Cn1c(Nc2cccc(C)c2)nc2c1c(=O)n(C)c(=O)n2C | 2.69%
41 | Cc1ccc(NC(=O)COc2ccccc2)cc1S(=O)(=O)N1CCCCCC1 | -24.4%
42 | CSc1nnc(-c2cccc(NC(=O)c3ccccc3)c2)n1C | -22%
43 | CCN(CC)S(=O)(=O)c1cc(NC(=O)C(C)N2CC=C(c3ccccc3)CC2)ccc1C (centres unmarked) | 0.182%
44 | O=C(COc1ccccc1)Nc1nnc(-c2ccc(F)cc2)o1 | -16.4%
